Screen size: about 73,000 compounds; about 2,500 (3.4%) were called active. This list was built around the results that the source calls inconclusive (neither active nor inactive); the mix of calls is not that of the screen. Calls follow the shape of the dose curve; as a rule, active = well fitted inhibition curve with a large enough effect; inconclusive = small, poorly fitted or top-dose-only effect; inactive = no such curve, though single readings can be large or run the other way. Where the call is inconclusive, the potency comes from a doubtful curve fit.
These compounds were tested against 3-hydroxyacyl-CoA dehydrogenase type-2 (Homo sapiens) (UniProt Q99714) (assay: qHTS Assay for Inhibitors of HADH2 (Hydroxyacyl-Coenzyme A Dehydrogenase, Type II)). Conditions: recombinant HADH2, NADH fluorescence, beta-hydroxybutyryl-CoA; activity change, negative = inhibition: at 57.1 µM (top of the series).
UniProt Q99714, sequence (Q99714 whole entry, looked up): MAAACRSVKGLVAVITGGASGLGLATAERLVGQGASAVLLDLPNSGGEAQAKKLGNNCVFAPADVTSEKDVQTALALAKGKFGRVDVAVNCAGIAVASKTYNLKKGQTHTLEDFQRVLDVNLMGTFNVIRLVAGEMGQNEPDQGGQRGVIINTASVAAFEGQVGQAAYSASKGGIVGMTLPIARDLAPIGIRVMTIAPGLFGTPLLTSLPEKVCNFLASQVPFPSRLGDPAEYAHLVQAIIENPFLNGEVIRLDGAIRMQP
UniProt Q99714, sequence (Q99714 whole entry, looked up): as above
How it was run: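 Activity measured as NADH fluorescence gain (360/450 nm), taken as the change between first and last reads of a 4-min kinetic run. Conditions: pH 9.0 Tris buffer, 20 nM E. coli-expressed His-tagged enzyme, 1 mM NAD+, 90 uM beta-hydroxybutyryl-CoA; 15-min compound preincubation.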
`CNC(=O)c1cc2cc(OC)ccc2oc1=N` was tested, and the “activity change, negative = inhibition” value was inactive: -15.4%. `COC(=O)c1cnn2c(C)c(Cc3cccc(F)c3)c(C)nc12` was tested, and the Potency was active: 20 µM. `Cc1ccc2[nH]c3c(c2c1)CCC3=O` was tested, and the Potency was inconclusive: 3.98 µM [inhibitor, single point]. For `Cc1cc(OCCCCCNCCO)cc(C)c1Cl`, the activity change, negative = inhibition was inactive: 5.97% [at 11.4 µM]. In the case of `CCOC(=O)Nc1nnc(-c2ccccc2OC)s1`, the Potency is reported as active: 10 µM. In the case of `COc1cccc2[nH]c3c(N4CCCCC4)ncnc3c12`, the Potency is reported as inconclusive: 39.8 µM [inhibitor, single point]. With `CN(C)c1ccc2nc3ccc(=[N+](C)C)cc-3sc2c1` the Potency was inconclusive: 1.58 µM [inhibitor, full curve]. In the case of `O=C(Nc1ccc2c(c1)ncn2-c1ccccc1)c1ccco1`, the Potency is reported as inconclusive: 25.1 µM [inhibitor, partial curve]. `CCCCN(C(=O)c1ccco1)c1nnc(-c2cc(OC)c(OC)c(OC)c2)s1` was tested, and the Potency was inconclusive: 31.6 µM [inhibitor, single point]. In the case of `C=CCn1c(=O)c2ccccc2n2c(SCC(=O)c3ccccc3)nnc12`, the Potency is reported as inconclusive: 20 µM [inhibitor, partial curve]. `O=C(NCCCn1ccnc1)c1cn(-c2ccccc2)nc1-c1ccc(F)cc1` was tested, and the “activity change, negative = inhibition” value was inactive: -6.25%. For `CC(CCC(=O)O)(c1cc(Br)c(O)c(Br)c1)c1cc(Br)c(O)c(Br)c1`, the Potency was inconclusive: 0.316 µM [inhibitor, full curve]. For `CC1CCN(CCn2c(=S)[nH]c3ncccc3c2=O)CC1`, the Potency was inconclusive: 25.1 µM [inhibitor, single point]. `O=c1c2ccccc2sn1-c1ccc(S(=O)(=O)N2CCCCC2)cc1` was tested, and the Potency was active: 0.398 µM. `O=c1[nH]c2c(s1)C(c1ccco1)C1C3CCC(C3)C1S2` (configuration not stated) was tested, and the Potency was active: 1.58 µM. In the case of `CCOc1ccc2[nH]c(=O)c(C(c3nnnn3C3CCCCC3)N3CCN(C)CC3)cc2c1` (configuration not stated), the “activity change, negative = inhibition” value is reported as inactive: 8.2%. In the case of `CCCc1nnc(NC(=O)Cn2c(=O)oc3ccccc32)s1`, the Potency is reported as active: 12.6 µM. For `c1ccc(-c2csc(N3CCCCCC3)n2)cc1`, the Potency was inconclusive: 25.1 µM [inhibitor, partial curve]. With `CC(=O)CSc1ncnc2c1oc1ccccc12` the Potency was inconclusive: 31.6 µM [inhibitor, single point]. In the case of `COc1ccc(CCNC(=O)CSc2nc(N)c(C#N)c(-c3cccs3)c2C#N)cc1OC`, the Potency is reported as inconclusive: 0.631 µM [inhibitor, partial curve, poor fit]. With `Cc1cccc(NC(=O)c2sc3nc(-c4ccc(F)cc4)cn3c2C)n1` the Potency was active: 25.1 µM. With `Cc1cc(NCCN2CCCCC2)n2c(nc3ccccc32)c1C#N` the Potency was inconclusive: 0.1 µM [inhibitor, partial curve]. In the case of `CC1(C)C(=O)OC(c2cc(Br)ccc2O)C(C)(C)C1=O` (configuration not stated), the “activity change, negative = inhibition” value is reported as inactive: -4.67%. In the case of `COC(=O)c1c(-c2ccccc2)csc1NC(=O)c1ccco1`, the Potency is reported as inconclusive: 39.8 µM [inhibitor, single point]. For `CCOC(=O)c1cc2c(=O)n3ccccc3nc2n(CCCOC)c1=NC(C)=O`, the Potency was active: 20 µM. With `CCCSc1nsc(SCCC)c1C(N)=O` the Potency was inconclusive: 20 µM [inhibitor, single point]. `O=c1c(CCc2ccccc2)nc2cnc(N3CCOCC3)nc2n1-c1ccccc1` was tested, and the “activity change, negative = inhibition” value was inactive: 10.8%. With `O=c1[nH]c2cc3c(cc2cc1CN(Cc1ccccc1)Cc1nnnn1Cc1ccco1)OCCO3` the Potency was inconclusive: 25.1 µM [inhibitor, single point]. With `O=C(/C=C\c1ccc(O)c(O)c1)O[C@@H]1C[C@](O)(C(=O)O)C[C@@H](O)[C@@H]1O` the Potency was active: 5.01 µM. In the case of `CCCOc1ccc(NC(=O)C2CCCNC2=O)cc1` (configuration not stated), the Potency is reported as inconclusive: 0.0251 µM [inhibitor, full curve, poor fit]. `N#Cc1c(N)n(CCCN2CCOCC2)c2nc3ccccc3nc12` was tested, and the Potency was active: 25.1 µM. In the case of `O=C(CSc1nnnn1-c1cccnc1)NCc1cccs1`, the Potency is reported as inconclusive: 31.6 µM [inhibitor, single point]. With `Cc1oc(C(=O)O)cc1CSCc1ccoc1C(=O)O` the Potency was inconclusive: 15.8 µM [inhibitor, partial curve]. In the case of `COC(=O)CC(=O)CSc1nc2c(cc1C#N)CCC2`, the Potency is reported as inconclusive: 31.6 µM [inhibitor, single point]. `COC(=O)c1cc(OC)c(OC)cc1NC(=O)Nc1ccc(OC)cc1OC` was tested, and the Potency was inconclusive: 7.94 µM [inhibitor, single point]. `CC(=O)N(C)c1ccc(OCC(O)COc2ccc(N(C)C(C)=O)cc2)cc1` was tested, and the “activity change, negative = inhibition” value was inactive: 5.24%. With `COc1ccc(C(=O)NCC2OCCc3ccccc32)c(O)c1` (configuration not stated) the Potency was inconclusive: 39.8 µM [inhibitor, single point]. With `N=c1nc(SCCC(=O)O)ss1` the Potency was inconclusive: 20 µM [inhibitor, partial curve]. In the case of `O=C(NCc1ccncc1)C12CC3CC(CC(C3)C1)C2`, the “activity change, negative = inhibition” value is reported as inactive: -13.1%. For `Cc1ccc2nc(-c3ccccn3)oc2c1`, the Potency was active: 25.1 µM. With `Cc1cc(N2CCOCC2)nc2ccc(NC(=O)CCC(=O)N3CCCCC3)cc12` the Potency was active: 12.6 µM. In the case of `Cc1cc(C)nc(/N=C2/NC(=O)CS2)n1`, the “activity change, negative = inhibition” value is reported as inactive: -22.2%. For `O=C1CN(C(=O)c2cnccn2)c2ccccc2N1`, the “activity change, negative = inhibition” value was inactive: 1.78%. With `Cn1c(=O)c(-c2cc(F)cc(F)c2)nc2cnc(Oc3cccc(Cl)c3)nc21` the “activity change, negative = inhibition” value was inactive: 6.88%. In the case of `CCn1cnc2cc(NCc3cccc(OC)c3O)ccc21`, the Potency is reported as active: 20 µM. For `CCn1c(SCC(=O)N2c3ccccc3Sc3ccccc32)nnc1-c1ccco1`, the “activity change, negative = inhibition” value was inactive: 2.19%. With `COCc1cc(=O)n2[nH]c(-c3cccc(Br)c3)cc2n1` the “activity change, negative = inhibition” value was inactive: 315%. `O=c1c(-c2cc(F)cc(F)c2)nc2cncnc2n1C1CC1` was tested, and the “activity change, negative = inhibition” value was inactive: -17.5%. `COc1ccc(N2CCN(c3nc(=S)n(-c4ccccc4)c(C)c3C(C)=O)CC2)cc1` was tested, and the Potency was active: 10 µM. For `COC(=O)c1cc2oc(C)cc2n1CC(=O)N1CCCc2ccccc21`, the Potency was inconclusive: 20 µM [inhibitor, partial curve]. For `Cc1cc(C)c(C#N)c(N2CCSCC2)n1`, the Potency was inconclusive: 10 µM [inhibitor, partial curve]. `Oc1c(Cl)cc(C(c2cc(Cl)c(O)c(Cl)c2)C(c2cc(Cl)c(O)c(Cl)c2)c2cc(Cl)c(O)c(Cl)c2)cc1Cl` was tested, and the Potency was inconclusive: 5.01 µM [inhibitor, single point].

From PubChem BioAssay AID886 (National Center for Advancing Translational Sciences (NCATS), 2007)
% is scaled to controls: 0 for no effect and ±100 for the full control effect; potency is read from the fitted curve at half-maximal effect; tags tell the direction and shape of the fitted curve.
Also: nearly all actives have a fitted effect of over 60% in size.
